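Protocol summary: plate cells (96-well), add compound at 5 concentrations, incubate 48 h, interpolate endpoints linearly. The concentration for 50% growth inhibition is given as GI50. Definition used: TGI = concentration required for complete inhibition of growth.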 Bounds are passed on as bounds.

Consider 3 compounds from PubChem BioAssay (NCI).

This test relates to NCI-H322M lung. Briefly: inhibition of tumour cell growth, NCI panel, 48 h.

As to `O=C1[C@H]2Cc3c([nH]c4ccccc34)[C@@H](c3ccc(Br)cc3)N2C(=O)CN1C1CCN(Cc2ccccc2)CC1`, the GI50 was 9.33 µM and the TGI is above 25 µM.
As for `CS(=O)(=O)c1nccc(-c2c(-c3ccc(F)c(OCCc4ccc(F)cc4)c3)nc3sccn23)n1`, the GI50 is 10.6 µM and the TGI is 24.3 µM.
The corresponding values for `COc1ccc([C@H]2C(=O)N(c3cc(OC)c(OC)c(OC)c3)[C@@H]2c2ccc(OC)c(O)c2)cc1` are 0.0678 µM and above 100 µM.
